Read counts are not given, so values of variants with three or more changes are uncertain.
B1: OR4K15 (parent)
chain: GUUAACGGUCAUAGGCCAUGGAAACUAGGAGCACCAUUUCGCUGCCAGUGAAGAAAUGAACAAAGAAAAUCUGGGCCAGGCAGGCAUCAAAAGAAAUAGUCUUGCGCUCAACCAGAAAGUCUGUAAUCAUUUUAAGGGUA

Variants of: B1
Experiment: self-cleavage, relative activity (ratio to wild type); higher = more cleavage; in vitro, sequencing; the parent is a self-cleaving ribozyme

Variant | self-cleavage
A47G U70C A90C | 0.46
A47G A55G U108C A135G | 0.01
A51G A59G A86U U131C G138C | 1.64
A51G A64G G79C A82U U139A | 0.16
A51G A59G A62U U70C | 0.82
A47G G104A U122A | 0.02
A47U A64G U132C | 0.41
A47U A62U A82G A92G A116U U133C | 0.09
A47G A55G G83A U131C | 1.6
U49C A78G A114U | 0.01
C45A A114U A126C | 0.01
A47G A54G U102A A116G | 0.26
C46U A91G A96G | 0.46
A47G U57A A67G U70C A89G C105U | 0.03
A47G C71U A111G | 0.01
U49A A117G U131C | 1.16
U49C U57C A126G | 0.38
A47G A56G U100C | 1.7
C46U U108C U127A | 0.02
C45A A52G A94G A116G | 0.91
G50U A67G A90G | 1.37
U49A A55G U127C | 0.13
A47G A52G U131C | 0.34
A47G A117G C128U | 1.05

Variant | self-cleavage
A47G A63G C105U A111G | 0
U49A A111G U124C | 0
U49G A86G U108A | 0.01
U49C A52G A114U A129U | 0.02
A51G A60G A126G | 0.47
A51G A56G A68G U108A | 0.05
U49C A59G U132A | 0.95
A51G A56G A96G | 0.81
U49C U57C A60G | 0.89
G50A A51G U100A | 0.46
A51C U72C A118G | 0.17
A47U A54G U132C | 0.57
A51G A52G A64G C71U U120C | 0.45
A47G A69G A110G | 0.11
A47G A78C U87A A96G U103C | 0.12
A47U U108C U131C | 0
G44A U100C A110U | 2.91
A51G A54G A59G A94U G119U U131C | 1.58
A51G A54G A66G U122C A126G | 1.11
U49C G50A A111U | 0.03
A51G A60G A110G U131C | 0.22
A47U A55G A60G | 0.47
A47G C105U U132C A135G | 0.08
U49C A62C A66G | 1.7

Variant | self-cleavage
G48U A51G A66G U130C | 0.57
A47G A89G A95G U124C | 1.4
U49C U72A A78G | 0.19
A47U G104U A118G | 0.02
G44U U108C A126G U127C U130C | 0
U49C A66G U130A | 0.71
A47U A62G A92G U108A | 0.01
U49C U70C A82U | 0.29
A47G A54G A114G | 0.23
A47G A82G A117U | 0.53
G48A A82U U131C | 0.19
A47G A54G A98U | 1.53
A47U A51G U57C U133C A135G | 1.75
C45U A89G A118G | 1.53
U49A U100C A126G | 1.3
U49C A78G A111G | 0.01
C46U A47U U57C U72A U133C | 0.14
A47G A55G A68G A91G A118U A135U | 0.07
C46U A64U A82G U97C U120C | 0.1
A51G A63G A82G | 0.91
A47G U108C A110G | 0.01
G50A A78G A129C | 0.23
C45A A52G A68G U108C U122C A129G | 0
A47G A62U A126G | 0.46

Variant | self-cleavage
A47U A91G U120C | 0.29
U49C A96G C109U | 0.09
C46U A68G G123A | 1
A51G A66G U100C | 1.48
U49A U102C U122C A135G | 1.49
U49A A54G A117U | 0.67
U49C U124A U131C | 0.49
G50A A54G A78U U102C U103A | 0.02
C46U U100C U120C A125G | 1.21
U49G A60U A92G U100C | 2.13
A47C U108C C109A | 0.02
U49C U127C U130C | 0.56
U49C A59G A69C A96G | 0.71
G44A A47G U57C A94G | 0.42
U49C U124C U131C | 0.44
A47G A56G A82G A116G A117G | 0.09
U49C A59U A67G | 1.18
U49G A66G U131C U132C | 0.57
G44A A86G U97C | 1.78
U49C A54G A111G U120C | 0
C46U A62G A89G U127C | 1.33
A47G U57A A68U U100C | 2.19
A47U A64G A66G G99A | 0.17
A47G A55G A63G U131C A140U | 1.31

Variant | self-cleavage
U49C A63C A78G U130C A135G | 0.14
U49C A60G A114G | 0.14
U49C U87C A110G | 0.11
A47G A116G A117G | 0.19
A47U A52G A96G U103C U122C | 0.2
U49C A54G U57C U70A A94G | 0.59
G48U U70C U87C U122C | 0.3
A51G A52G A55G U70C | 0.63
C46A C81U A117G | 0.51
A51G A67G A90G A96G | 1.41
U49A A56G A78G | 0.32
G50A A51G A54G A82G | 0.66
A47G U57C A66G U131G U139C | 0.5
U49C A60G A66G A69U | 1.67
G44U A56G A95G U100C G137U | 2.02
A51G A52G A89G U108C | 0.08
U49C A54C A86G G137A | 1.28
A47G A118G A126G | 0.64
U49A A66U A96G | 1.98
A47G A59G A89C U122C | 0.63
A51G A63G U103C G136U | 0.57
A47G A63G A91G A95U | 0.44
A47C U122A U127A | 0.91
A51G A64G A114U | 0

Variant | self-cleavage
A51G A63G A69G | 1.18
C45A A67G U103C | 0.62
A51G A62G U132C | 1.65
G50A A52G A110C A114G A116G | 0.02
U49C U70C U102C | 1.6
U49C G53U A78U A118G | 0.18
A47U A67G A118U | 0.14
G44A A62G A111G U127C | 0.02
A47C U102C A111G | 0.01
A47G A68G C77U A95G C113U | 0.08
C45U A91G A126G A129G | 0.29
A51G A56G A66G A69G A94U | 0.95
A51G A54G A63G A89G A95G A118G | 0.78
U49C A62G A90G | 0.33
U49C A51G G80A A86G | 0.12
A47G U49C U87C A95G U122C | 0.07
U49C A56G U108C U139C | 0.01
A47C A78G A95G U133C | 0.22
U49C G79A U87A A126G | 0.03
U49A A51U A67G U72A | 0.35
U49C A55G A67U | 2
C45U A62C A82G A110G A126G | 0.01
U49C A51G A67G A89G U131C | 1.24
U49C A60G A69G U120C | 0.49

Variant | self-cleavage
U49A A56G A95G A114G | 0.74
U49A U102C A114U | 0.07
U49A A54G A67G A95G | 1.29
U49G A116G U133C | 1.23
A47G A51G A117U | 1.12
U49C A55G A59G C112A | 0.04
A47G A67G A95G U102C | 2.32
C46U A52G A67G U120C | 0.94
G44C A54G A60G A118G | 0.44
A47G A64G U132C | 1.62
A47G A59G A63G U102C | 2.89
A51G A52G C77U U87C | 1.2
U49A A66G A92U A118G U133A | 0.93
A47G A82U U127C | 0.13
U49C A94G A114G | 0.29
U49C A63G U103C | 1.13
A51G A60U A66G A86G U131C | 1.18
A47U A95G A117G | 1.76
U49C U72A A89G A95G | 0.02
A47C A78G U120C | 0.15
A47G U49G A78U | 0.15
U49G A55G A111G A140G | 0.03
U49C A82G A110G | 0.07

— the RNAGym collection of RNA variant scans (doi:10.7554/elife.90254)
